In PubChem BioAssay AID2676 (National Center for Advancing Translational Sciences (NCATS), 2010):
In all, about 370,000 compounds went through this assay and about 1,100 (0.3%) were called active. The shares of active, inactive and inconclusive entries below differ from those in the screen. Calls follow the shape of the dose curve; as a rule, active = well fitted activation curve with a large enough effect; inconclusive = small, poorly fitted or top-dose-only effect; inactive = flat fitted curve, though single readings scatter. Potencies beside an inconclusive call are fits to weak or partial responses and may not hold up.

These compounds were tested against Relaxin receptor 1 (Homo sapiens) (UniProt Q9HBX9) (assay: qHTS Assay for Agonists of the Relaxin Receptor RXFP1). Settings: HEK293T-RXFP1 cAMP TR-FRET, 30 min; series mostly up to 57.5 µM; activation: at the top concentration.
Sequence of UniProt Q9HBX9 (Q9HBX9 whole entry, looked up): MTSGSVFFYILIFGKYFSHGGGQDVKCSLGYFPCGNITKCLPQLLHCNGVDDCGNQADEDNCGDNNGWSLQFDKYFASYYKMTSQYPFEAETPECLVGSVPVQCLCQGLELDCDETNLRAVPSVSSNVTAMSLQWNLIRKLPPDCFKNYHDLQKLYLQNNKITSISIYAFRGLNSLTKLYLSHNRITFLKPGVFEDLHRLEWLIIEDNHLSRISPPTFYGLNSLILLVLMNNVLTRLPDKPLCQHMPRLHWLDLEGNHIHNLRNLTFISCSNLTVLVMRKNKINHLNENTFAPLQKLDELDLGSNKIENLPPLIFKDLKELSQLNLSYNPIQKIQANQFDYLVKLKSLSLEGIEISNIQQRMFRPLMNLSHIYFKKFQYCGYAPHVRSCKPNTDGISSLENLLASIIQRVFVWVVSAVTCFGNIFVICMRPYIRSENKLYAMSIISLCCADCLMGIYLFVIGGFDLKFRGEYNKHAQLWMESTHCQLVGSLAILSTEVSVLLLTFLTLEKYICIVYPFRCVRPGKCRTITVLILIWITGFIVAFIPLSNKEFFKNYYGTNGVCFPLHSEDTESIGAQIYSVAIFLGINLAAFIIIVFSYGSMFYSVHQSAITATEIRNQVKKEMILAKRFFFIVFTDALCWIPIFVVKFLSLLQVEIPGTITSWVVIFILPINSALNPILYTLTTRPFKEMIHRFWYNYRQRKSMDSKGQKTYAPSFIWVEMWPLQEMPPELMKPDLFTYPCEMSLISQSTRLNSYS
Procedure, shortened: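 HEK293 cells stably expressing RXFP1, treated 30 min at 37C with compounds plus PDE4 inhibitor Ro 20174; cAMP measured by HTRF TR-FRET. Normalized to buffer and 29 nM porcine relaxin; EC50 by Hill fit.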
% is scaled to controls: 0 for no effect and ±100 for the full control effect; potency is read from the fitted curve at half-maximal effect; tags tell the direction and shape of the fitted curve.
Also: nearly all actives have a fitted effect of over 60% in size.

| Structure (SMILES) | Potency | activation |
| --- | --- | --- |
| O=C(c1cccs1)N1C(=O)c2cccc3cccc1c23 | inconclusive: 39.8 µM [activator, single point] | – |
| CC(C)NCC(O)c1ccc(O)c(O)c1 (stereo not drawn) | inconclusive: 3.16 µM [activator, partial curve] | – |
| O=C(O)CSc1ncnc2sc3c(c12)CCC3 | inconclusive: 25.1 µM [activator, partial curve] | – |
| CN(C)CCNC(=O)/C(=C/c1ccc(-c2ccc(Cl)cc2)o1)NC(=O)c1ccccc1 | – | inactive: -0.825% |
| Cc1nc2c(c(C)c1CCC(=O)NCc1ccc(F)cc1)c(=O)n(C)c(=O)n2C | inconclusive: 31.6 µM [activator, single point] | – |
| CCc1ccc(/C=C2\Oc3c(ccc(O)c3CN3CCN(C)CC3)C2=O)cc1 | – | inactive: 16.9% |
| Cc1sc(NC(=S)NC(=O)C2CCCCC2)c(C(N)=O)c1C | inconclusive: 25.1 µM [activator, partial curve] | – |
| CCOC(=O)c1c(C)oc2c1c(C(c1cccnc1)N1CCOCC1)c(O)c1ccccc12 (stereo not drawn) | – | inactive: 0.141% |
| COc1ccc(C2=NS(=O)(=O)N(C)C(C(=O)Nc3ccc(C(C)=O)cc3)=C2)cc1OC | – | inactive: 4.45% |
| Cc1ccc2c(=O)c(C(=O)c3ccc(F)cc3)cn(CC(=O)NCc3ccco3)c2n1 | inconclusive: 35.5 µM [activator, single point] | – |
| Nn1c(SCc2ccccc2)nc2ccccc21 | – | inactive: -0.814% |
| Cc1ccc(NC(=O)Cn2cc(S(=O)(=O)c3ccccc3)c(=O)c3cc(F)ccc32)cc1 | inconclusive: 39.8 µM [activator, single point] | – |
| O=C(O)c1nn2cc(CCO)cnc2c1Cl | inconclusive: 31.6 µM [activator, single point] | – |
| Cc1ccc(OCCOCCn2c(-c3ccc(Cl)cc3)nc3ccccc3c2=O)cc1 | inconclusive: 35.5 µM [activator, single point] | – |
| Cc1ccc2c(C)cc(=S)[nH]c2c1 | active: 28.2 µM | – |
| Cc1ccc(/C=C2/SC(=O)NC2=S)o1 | inconclusive: 31.6 µM [activator, single point] | – |
| NS(=O)(=O)c1cccc(NC(=O)CSc2ncnc3ccccc23)c1 | active: 25.1 µM | – |
| Cn1cc(CNC(=O)c2cc(-c3ccccc3)nc3ccc(Br)cc23)cn1 | inconclusive: 31.6 µM [activator, single point] | – |
| COc1ccc2nc(SCC(=O)Nc3ccc4sc(C)nc4c3)c(C#N)cc2c1 | inconclusive: 35.5 µM [activator, single point] | – |
| O=C(CSc1ncc2c(n1)-c1ccccc1N(Cc1ccc(F)cc1)S2(=O)=O)NCCc1ccccc1 | inconclusive: 35.5 µM [activator, single point] | – |
| CC(C)n1c(CN2CCN(C(=O)c3ccco3)CC2)nc2c1c(=O)n(C)c(=O)n2C | inconclusive: 15.8 µM [activator, partial curve] | – |
| Cn1c(=O)c2cc(C(=O)NC3CCCCCC3)sc2c2ccccc21 | inconclusive: 35.5 µM [activator, single point] | – |

| Structure (SMILES) | Potency | activation |
| --- | --- | --- |
| Cc1ccc(C(=O)Nc2nc3ccccc3c(=O)s2)cc1 | inconclusive: 39.8 µM [activator, single point] | – |
| CCCn1c(NC(=O)c2ccc(F)cc2)nc2ccccc21 | inconclusive: 35.5 µM [activator, single point] | – |
| CCOC(=O)COc1ccc2nsnc2c1Cl | – | inactive: 6.43% |
| Cc1cccc(NC(=O)CSc2nc(-c3cccs3)cc(C(F)(F)F)c2C#N)c1 | inconclusive: 35.5 µM [activator, single point] | – |
| COc1cccc(-c2nc(N)nc(SC)c2C#N)c1 | inconclusive: 39.8 µM [activator, single point] | – |
| CCOc1ccc(CCNS(=O)(=O)c2ccc(-c3ccc(=O)[nH]n3)o2)cc1OCC | – | inactive: 1.54% |
| COc1cccc(NC(=O)c2cccc(C(=O)Nc3cccc(OC)c3)c2)c1 | inconclusive: 39.8 µM [activator, single point] | – |
| COc1ccc(-c2nn(C)c3sc(C(=O)N4CCN(c5cccc(C)c5C)CC4)cc23)cc1OC | inconclusive: 39.8 µM [activator, single point] | – |
| c1ccc(-c2cc3c(N4CCN(c5ncccn5)CC4)ncnc3s2)cc1 | inconclusive: 28.2 µM [activator, partial curve] | – |
| Cc1ccc(N2C(=O)c3cccc4c([N+](=O)[O-])ccc(c34)C2=O)c2cccnc12 | – | inactive: -2.37% |
| Cc1ccc(CNc2nc3c(S(=O)(=O)c4ccccc4)nnn3c3ccsc23)cc1 | inconclusive: 3.98 µM [activator, full curve] | – |
| CC1(C)Cc2c(sc3ncn(N)c(=N)c23)CO1 | – | inactive: 1.94% |
| O=C(/C=C\Nc1ccc(S(=O)(=O)Nc2ncccn2)cc1)c1ccccc1 | inconclusive: 39.8 µM [activator, single point] | – |
| Cc1cc(NCCCN(C)C)n2c(nc3ccccc32)c1C#N | inconclusive: 31.6 µM [activator, partial curve] | – |
| CCC(=O)Nc1nnc(S(=O)(=O)N(C)Cc2ccccc2)s1 | inconclusive: 28.2 µM [activator, single point] | – |
| CCCn1c(C(C)Nc2nc(-c3cc(Cl)c(N)c(Cl)c3)cs2)nc2cc(Cl)c(N3CCCCC3)cc21 (stereo not drawn) | – | inactive: 1.51% |
| CC(=O)c1sc2c(c1C)c(=O)n(-c1ccc(Cl)cc1)c(=O)n2Cc1ccc(Cl)cc1 | – | inactive: 19.1% |
| COc1ccc(-c2cc(C(=O)Nc3c(C(=O)c4ccc(Cl)cc4)oc4ccccc34)no2)cc1 | inconclusive: 39.8 µM [activator, single point] | – |
| CCOC(=O)c1cc2c(=O)n3ccccc3nc2n(CC2CCCO2)c1=NC(=O)c1cccc(C(F)(F)F)c1 (stereo not drawn) | inconclusive: 35.5 µM [activator, single point] | – |
| COc1ccc(CN(C)S(=O)(=O)c2nnc(NC(=O)c3ccccc3)s2)cc1OC | inconclusive: 22.4 µM [activator, partial curve] | – |
| COCCNC(=O)CSc1cc(-c2ccccc2)c2ccc(OC)cc2n1 | inconclusive: 25.1 µM [activator, partial curve] | – |
